Over roughly 33,000 sequences, “E-score (-0.5 to 0.5)” has its median near -0.016; the highest 2% begin near 0.31. This is one part of the list.
The sequences below were run against Cst6 (UniProt P40535) (assay: PBM E-score (8-mer binding enrichment) (E-score (-0.5 to 0.5)); higher = stronger / more preferred TF binding; most listed sequences are background and not binding sites). Settings: protein concentration: 200 nM; construct: GST-DNA-binding domain.
Method in brief: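 The E-score, a modified Wilcoxon-Mann-Whitney statistic, was computed by the Universal PBM Analysis Suite for every ungapped eight-base word pooled with its reverse complement. Scans behind it were normalised with masliner after bound GST-tagged yeast transcription factors were detected with fluorescent anti-GST. The proteins, at about 100-200 nM, had been applied to universal all-10-mer Agilent arrays made double-stranded by primer extension.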

First: GACGAACA
Second: CAAAAGGA
The “PBM E-score” value of the first is higher: 0.145 for the first, 0.076 for the second.

Compared with CGCACATA, AGAGAGCT is lower in “PBM E-score” value: -0.12 for the first, -0.224 for the second.

First: CCAGGCCG
Second: AGTTGGGG
The “PBM E-score” value of the first is higher: -0.0795 for the first, -0.144 for the second.

First: GTCCTCAC
Second: CTCGTCTA
The “PBM E-score” value of the first is lower: -0.00401 for the first, 0.0081 for the second.

First: AAGTACAC
Second: ATAGGCCC
The “PBM E-score” value of the first is higher: 0.126 for the first, -0.302 for the second.

Going from AAGCAATA to AACGGCTA, the “PBM E-score” value rises from 0.0125 to 0.0973.

First: GGCAGAAA
Second: CGCTAGTC
The “PBM E-score” value of the first is higher: 0.191 for the first, -0.28 for the second.

Going from AGTTCCGC to ACGAGGAT, the “PBM E-score” value rises from -0.0978 to -0.0239.

Compared with CTCCTTAC, AGCGTCCT is lower in “PBM E-score” value: 0.00778 for the first, -0.276 for the second.

Going from GTTTTTCA to ACATTAAC, the “PBM E-score” value falls from 0.103 to 0.0491.

First: GCGGGCCC
Second: CCCTCTTC
The “PBM E-score” value of the first is higher: -0.248 for the first, -0.349 for the second.

Compared with ATTCCCAA, ACTGCTCA is higher in “PBM E-score” value: 0.0668 for the first, 0.159 for the second.

Compared with GGTCCTTA, AGATTCCG is higher in “PBM E-score” value: -0.0825 for the first, 0.0555 for the second.

Compared with GAAAACCA, ATCGCATA is higher in “PBM E-score” value: 0.0372 for the first, 0.0497 for the second.

Going from ATGGGATA to TGACTCAA, the “PBM E-score” value rises from -0.125 to 0.135.

First: ATCCAAAT
Second: GACTGTGC
The “PBM E-score” value of the first is higher: 0.171 for the first, -0.0662 for the second.

First: CCCCTGCG
Second: CCGACCCA
The “PBM E-score” value of the first is lower: -0.328 for the first, -0.225 for the second.

Compared with CGCCGGCA, CAAAGGCC is lower in “PBM E-score” value: -0.181 for the first, -0.199 for the second.

Going from ACGGGCCA to GTGACAGA, the “PBM E-score” value rises from -0.0404 to 0.133.

Going from ACTGAACG to AACAGTAC, the “PBM E-score” value rises from -0.056 to 0.0118.

Compared with CTTGAGGC, ATTGTACA is higher in “PBM E-score” value: -0.195 for the first, 0.0447 for the second.

Compared with TTATGCAA, AAGTACGC is lower in “PBM E-score” value: 0.124 for the first, 0.00352 for the second.

Going from ACGCTGGC to CCTTTTTC, the “PBM E-score” value rises from -0.207 to 0.106.

Compared with GTAGTTTA, GAATAGCA is lower in “PBM E-score” value: 0.171 for the first, 0.0431 for the second.

First: AGACAGTG
Second: AGACTTTA
The “PBM E-score” value of the first is lower: -0.048 for the first, -0.0284 for the second.

Going from GAAATCTA to AGCACAGA, the “PBM E-score” value falls from 0.173 to 0.0947.

First: ATGTCTGG
Second: CCTGTCGC
The “PBM E-score” value of the first is higher: -0.0099 for the first, -0.179 for the second.

Going from AGAATTCT to AGGGAATG, the “PBM E-score” value falls from 0.218 to -0.0251.

Compared with CAAGGACG, ACCTAACA is higher in “PBM E-score” value: -0.236 for the first, -0.0263 for the second.

First: GCTGCACA
Second: ACTTGAGG
The “PBM E-score” value of the first is higher: -0.165 for the first, -0.226 for the second.

Compared with GAAACGAC, AAAAAAAC is higher in “PBM E-score” value: 0.0429 for the first, 0.171 for the second.

Going from ACCCCGTA to AGCCTCCC, the “PBM E-score” value falls from -0.0129 to -0.322.

First: ATACACTA
Second: ATGTGGCG
The “PBM E-score” value of the first is higher: 0.119 for the first, -0.0174 for the second.

Compared with GCCCTCGC, GTGTATAA is higher in “PBM E-score” value: -0.0974 for the first, -0.0913 for the second.

Compared with CCCGGGCC, CCGACTGA is higher in “PBM E-score” value: -0.309 for the first, -0.0992 for the second.

First: CACACTCA
Second: AATAGGGT
The “PBM E-score” value of the first is higher: 0.194 for the first, -0.00098 for the second.

Compared with CCGACGCC, AGATCGGA is lower in “PBM E-score” value: 0.0803 for the first, 0.0463 for the second.

Going from CCTGATTA to AATTGTCC, the “PBM E-score” value falls from 0.0379 to -0.012.

Going from ACAGTACA to ACACAAAG, the “PBM E-score” value rises from -0.105 to 0.0606.

First: CAAGTATG
Second: TCGAGCGA
The “PBM E-score” value of the first is lower: 0.0553 for the first, 0.0805 for the second.

First: CCGCACAC
Second: CAAATCAA
The “PBM E-score” value of the first is lower: -0.0493 for the first, 0.239 for the second.

First: CACGCTCC
Second: CAGATATA
The “PBM E-score” value of the first is lower: -0.172 for the first, 0.2 for the second.

First: CGAATCCG
Second: ATTCGCGA
The “PBM E-score” value of the first is lower: -0.0422 for the first, -0.0089 for the second.

Compared with CCCCCCCG, AAAAGCCT is higher in “PBM E-score” value: -0.336 for the first, -0.104 for the second.

Compared with ATAGTCAT, GAAGTCAA is higher in “PBM E-score” value: 0.0474 for the first, 0.119 for the second.

Going from AGCCTTTC to ATTCAACA, the “PBM E-score” value rises from -0.0269 to 0.243.

Compared with CCTTTAAC, AATCCTTA is lower in “PBM E-score” value: 0.0665 for the first, 0.0277 for the second.

Going from AAACTCCC to AAGATTAG, the “PBM E-score” value rises from -0.131 to 0.13.

First: GCAGGCCC
Second: CTTCAACC
The “PBM E-score” value of the first is lower: -0.4 for the first, -0.0318 for the second.

Compared with ATATGGAC, CCCATTCC is lower in “PBM E-score” value: -0.0425 for the first, -0.413 for the second.

First: ACCCAACG
Second: ATCCATAC
The “PBM E-score” value of the first is lower: -0.0538 for the first, -0.00142 for the second.

First: GGGAGTAC
Second: GGGTAGAA
The “PBM E-score” value of the first is lower: -0.226 for the first, -0.072 for the second.

First: ATGAAATA
Second: TGAACTCA
The “PBM E-score” value of the first is higher: 0.283 for the first, 0.11 for the second.

Going from GCCCTGAA to AATCGCTA, the “PBM E-score” value falls from -0.00902 to -0.0581.

Compared with CCTAAAGC, AATAGAAC is higher in “PBM E-score” value: -0.171 for the first, 0.0675 for the second.

Compared with CAGTTGAC, CCGCGCCA is lower in “PBM E-score” value: 0.194 for the first, 0.123 for the second.

First: GCGTTGAA
Second: AGCGCCCG
The “PBM E-score” value of the first is higher: -0.00133 for the first, -0.14 for the second.

First: ACACCGTC
Second: CTAGTAGA
The “PBM E-score” value of the first is lower: -0.0372 for the first, 0.064 for the second.

First: CACGGCCC
Second: CTTGGGAA
The “PBM E-score” value of the first is higher: 0.182 for the first, 0.118 for the second.

Compared with AACTAGAA, GTCAGGAC is lower in “PBM E-score” value: 0.188 for the first, -0.113 for the second.

Going from CCTAACCC to ACGATGCT, the “PBM E-score” value rises from -0.411 to -0.0564.

Going from ATTTTCGA to GATGTCCC, the “PBM E-score” value falls from 0.243 to -0.3.

Going from GCCTTAGC to GTGGTCTA, the “PBM E-score” value falls from -0.0377 to -0.273.

Going from CGCCCGCA to CACGCTAA, the “PBM E-score” value rises from -0.0119 to 0.00256.

Going from AGTGCCTG to AGCATGCC, the “PBM E-score” value rises from -0.181 to -0.0964.

First: GGAAGTCA
Second: GGGGTCAA
The “PBM E-score” value of the first is lower: -0.14 for the first, -0.0862 for the second.

Compared with AAACGAGA, AATGCTTA is lower in “PBM E-score” value: 0.0396 for the first, -0.00505 for the second.

First: GCTGCCCC
Second: AGGCATGG
The “PBM E-score” value of the first is lower: -0.255 for the first, -0.071 for the second.

First: ACCCATAA
Second: CAGTTAAC
The “PBM E-score” value of the first is lower: -0.0187 for the first, 0.0423 for the second.

Going from GCCCCCTA to AGATCGAG, the “PBM E-score” value rises from -0.333 to -0.0213.

First: CGTAAATA
Second: ATTTTCCG
The “PBM E-score” value of the first is higher: 0.27 for the first, 0.209 for the second.

Compared with ATTCGTTA, AATCTTGA is lower in “PBM E-score” value: 0.141 for the first, 0.0369 for the second.

Going from CGGACTGC to AATGCATG, the “PBM E-score” value rises from -0.0761 to 0.204.

First: ATTGAGCG
Second: GTCGATCA
The “PBM E-score” value of the first is lower: -0.0477 for the first, -0.00123 for the second.

Compared with GCCCGGTA, GGTTTCAA is higher in “PBM E-score” value: -0.297 for the first, -0.113 for the second.

First: ACTTTCTC
Second: AACATAAG
The “PBM E-score” value of the first is lower: 0.0182 for the first, 0.209 for the second.

First: CACTCAGG
Second: AACCCACC
The “PBM E-score” value of the first is lower: -0.108 for the first, 0.0456 for the second.

Compared with GACACCGA, AGCAGCTA is lower in “PBM E-score” value: 0.018 for the first, -0.0344 for the second.

Going from CCAATCGA to GATACTTA, the “PBM E-score” value rises from -0.169 to 0.00497.

Compared with AGTCTCAG, ATCTACTA is higher in “PBM E-score” value: -0.162 for the first, 0.217 for the second.

Going from AAGCCATG to ATGTTAAC, the “PBM E-score” value rises from -0.124 to 0.124.

First: ACTGTTTA
Second: ATCTCGCG
The “PBM E-score” value of the first is higher: 0.0904 for the first, 0.0843 for the second.

First: GAGCACAC
Second: CTTCCAAG
The “PBM E-score” value of the first is higher: -0.14 for the first, -0.245 for the second.

Going from GTTGCATA to GATCCCCA, the “PBM E-score” value falls from 0.0892 to -0.0499.

Going from CGAATCTA to TGGCAGAA, the “PBM E-score” value falls from 0.0417 to 0.0392.

Compared with CCCTGTTC, CAACTGGG is higher in “PBM E-score” value: -0.255 for the first, -0.191 for the second.
